Data as given in publication PMC7396842.
These are yes or no findings as the source states them, for the method shown. In cells and extracts the contact can be indirect. Some results given as binding are weak or reduced against the parent protein; the word gives no strength. Where a sequence is shown, tags or fusion partners need not be part of it.

Amino acid sequences for entries named in this document (tags omitted).
UniProt P60520: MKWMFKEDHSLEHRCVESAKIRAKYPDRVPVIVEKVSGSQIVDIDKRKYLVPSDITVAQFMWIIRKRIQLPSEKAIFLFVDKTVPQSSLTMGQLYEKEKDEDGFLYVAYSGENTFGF
UniProt O95166: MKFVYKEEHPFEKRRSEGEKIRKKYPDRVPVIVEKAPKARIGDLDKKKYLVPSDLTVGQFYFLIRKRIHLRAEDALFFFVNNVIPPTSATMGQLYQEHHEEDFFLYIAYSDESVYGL

Key:
[1] = target: T1, EGFP-CALCOCO1 (full length), expressed in HEK293 cells (UniProt Q9P1Z2); assay: co-IP; EGFP-CALCOCO1 and Myc-tagged proteins transiently co-expressed in HEK293 cells; EGFP-CALCOCO1 precipitated with GFP-TRAP from lysates in modified RIPA buffer (50 mM Tris-HCl pH 7.4, 120 mM NaCl, 1 mM EDTA, 1% NP-40, 0.25% Triton X-100), 4 °C; anti-Myc blot
T1 sequence: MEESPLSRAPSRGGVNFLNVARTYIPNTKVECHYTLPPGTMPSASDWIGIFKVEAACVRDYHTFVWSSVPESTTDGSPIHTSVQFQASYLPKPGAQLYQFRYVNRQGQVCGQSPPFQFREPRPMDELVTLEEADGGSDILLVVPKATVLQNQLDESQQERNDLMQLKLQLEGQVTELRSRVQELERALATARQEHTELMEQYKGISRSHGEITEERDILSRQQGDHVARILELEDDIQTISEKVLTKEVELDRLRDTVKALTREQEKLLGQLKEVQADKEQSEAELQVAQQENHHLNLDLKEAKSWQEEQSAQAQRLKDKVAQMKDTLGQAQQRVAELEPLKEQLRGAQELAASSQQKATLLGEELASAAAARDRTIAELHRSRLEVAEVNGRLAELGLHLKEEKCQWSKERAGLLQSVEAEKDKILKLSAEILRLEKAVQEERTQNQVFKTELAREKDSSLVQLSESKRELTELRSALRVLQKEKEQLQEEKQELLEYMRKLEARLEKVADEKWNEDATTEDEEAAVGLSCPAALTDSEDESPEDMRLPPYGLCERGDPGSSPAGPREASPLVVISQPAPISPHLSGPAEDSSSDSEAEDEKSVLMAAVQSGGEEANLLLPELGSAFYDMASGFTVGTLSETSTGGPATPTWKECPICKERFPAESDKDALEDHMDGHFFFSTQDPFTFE

[2] = target: GST-GABARAPL2 (human) (UniProt P60520); assay: pull-down; GST fusion protein from E. coli on Glutathione Sepharose beads; 35S-labelled in vitro translated Myc-tagged protein, precleared, incubated 1 h at 4 °C in NETN buffer (50 mM Tris pH 8.0, 150 mM NaCl, 1 mM EDTA, 0.5% NP-40); five washes; autoradiography; only the target purified
[3] = target: GST-GABARAP (human) (UniProt O95166); assay: as above
[4] = target: T2, GFP-CALCOCO1 (full length), in vitro translated (UniProt Q9P1Z2); assay: co-IP; 35S-GFP-CALCOCO1 co-transcribed/translated in vitro with 35S-Myc constructs; GFP-TRAP immunoprecipitation; SDS-PAGE and autoradiography
T2 sequence (chain, 35S-methionine label): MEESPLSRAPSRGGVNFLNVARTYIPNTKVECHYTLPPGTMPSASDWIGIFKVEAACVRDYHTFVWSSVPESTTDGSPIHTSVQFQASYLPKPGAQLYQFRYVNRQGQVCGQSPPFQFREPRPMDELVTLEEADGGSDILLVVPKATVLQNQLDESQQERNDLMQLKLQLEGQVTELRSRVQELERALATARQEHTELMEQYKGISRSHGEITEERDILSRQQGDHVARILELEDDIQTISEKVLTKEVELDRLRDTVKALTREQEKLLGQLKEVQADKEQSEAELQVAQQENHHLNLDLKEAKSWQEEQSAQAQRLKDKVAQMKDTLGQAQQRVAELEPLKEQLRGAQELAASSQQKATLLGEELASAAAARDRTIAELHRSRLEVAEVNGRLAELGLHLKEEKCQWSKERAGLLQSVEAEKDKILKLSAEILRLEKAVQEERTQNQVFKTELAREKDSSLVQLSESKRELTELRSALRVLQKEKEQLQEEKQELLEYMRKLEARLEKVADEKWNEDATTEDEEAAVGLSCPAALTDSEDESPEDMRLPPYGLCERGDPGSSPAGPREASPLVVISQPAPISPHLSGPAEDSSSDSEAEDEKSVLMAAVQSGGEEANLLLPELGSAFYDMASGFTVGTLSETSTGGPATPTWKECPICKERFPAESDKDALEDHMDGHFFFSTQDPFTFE

| Binder | binding [2] | binding [3] | further results |
| --- | --- | --- | --- |
| Myc-CALCOCO1 (145–513), expressed in HEK293 cells (domain or fragment, UniProt Q9P1Z2 145-513) KATVLQNQLDESQQERNDLMQLKLQLEGQVTELRSRVQELERALATARQEHTELMEQYKGISRSHGEITEERDILSRQQGDHVARILELEDDIQTISEKVLTKEVELDRLRDTVKALTREQEKLLGQLKEVQADKEQSEAELQVAQQENHHLNLDLKEAKSWQEEQSAQAQRLKDKVAQMKDTLGQAQQRVAELEPLKEQLRGAQELAASSQQKATLLGEELASAAAARDRTIAELHRSRLEVAEVNGRLAELGLHLKEEKCQWSKERAGLLQSVEAEKDKILKLSAEILRLEKAVQEERTQNQVFKTELAREKDSSLVQLSESKRELTELRSALRVLQKEKEQLQEEKQELLEYMRKLEARLEKVADE | – | – | binding [1]: binds |
| Myc-CALCOCO1 ∆LIR (Δ126–144), in vitro translated (protein, UniProt Q9P1Z2, 35S-methionine label) MEESPLSRAPSRGGVNFLNVARTYIPNTKVECHYTLPPGTMPSASDWIGIFKVEAACVRDYHTFVWSSVPESTTDGSPIHTSVQFQASYLPKPGAQLYQFRYVNRQGQVCGQSPPFQFREPRPMDKATVLQNQLDESQQERNDLMQLKLQLEGQVTELRSRVQELERALATARQEHTELMEQYKGISRSHGEITEERDILSRQQGDHVARILELEDDIQTISEKVLTKEVELDRLRDTVKALTREQEKLLGQLKEVQADKEQSEAELQVAQQENHHLNLDLKEAKSWQEEQSAQAQRLKDKVAQMKDTLGQAQQRVAELEPLKEQLRGAQELAASSQQKATLLGEELASAAAARDRTIAELHRSRLEVAEVNGRLAELGLHLKEEKCQWSKERAGLLQSVEAEKDKILKLSAEILRLEKAVQEERTQNQVFKTELAREKDSSLVQLSESKRELTELRSALRVLQKEKEQLQEEKQELLEYMRKLEARLEKVADEKWNEDATTEDEEAAVGLSCPAALTDSEDESPEDMRLPPYGLCERGDPGSSPAGPREASPLVVISQPAPISPHLSGPAEDSSSDSEAEDEKSVLMAAVQSGGEEANLLLPELGSAFYDMASGFTVGTLSETSTGGPATPTWKECPICKERFPAESDKDALEDHMDGHFFFSTQDPFTFE | binds | binds | – |
| Myc-CALCOCO1 ∆LIR (Δ126–144) Δ651–691, in vitro translated (domain or fragment, UniProt Q9P1Z2, 35S-methionine label) MEESPLSRAPSRGGVNFLNVARTYIPNTKVECHYTLPPGTMPSASDWIGIFKVEAACVRDYHTFVWSSVPESTTDGSPIHTSVQFQASYLPKPGAQLYQFRYVNRQGQVCGQSPPFQFREPRPMDKATVLQNQLDESQQERNDLMQLKLQLEGQVTELRSRVQELERALATARQEHTELMEQYKGISRSHGEITEERDILSRQQGDHVARILELEDDIQTISEKVLTKEVELDRLRDTVKALTREQEKLLGQLKEVQADKEQSEAELQVAQQENHHLNLDLKEAKSWQEEQSAQAQRLKDKVAQMKDTLGQAQQRVAELEPLKEQLRGAQELAASSQQKATLLGEELASAAAARDRTIAELHRSRLEVAEVNGRLAELGLHLKEEKCQWSKERAGLLQSVEAEKDKILKLSAEILRLEKAVQEERTQNQVFKTELAREKDSSLVQLSESKRELTELRSALRVLQKEKEQLQEEKQELLEYMRKLEARLEKVADEKWNEDATTEDEEAAVGLSCPAALTDSEDESPEDMRLPPYGLCERGDPGSSPAGPREASPLVVISQPAPISPHLSGPAEDSSSDSEAEDEKSVLMAAVQSGGEEANLLLPELGSAFYDMASGFTVGTLSETSTGGPAT | binds | binds | – |
| Myc-CALCOCO1 ∆CT (∆514–691), in vitro translated (domain or fragment, UniProt Q9P1Z2 1-513, 35S-methionine label) MEESPLSRAPSRGGVNFLNVARTYIPNTKVECHYTLPPGTMPSASDWIGIFKVEAACVRDYHTFVWSSVPESTTDGSPIHTSVQFQASYLPKPGAQLYQFRYVNRQGQVCGQSPPFQFREPRPMDELVTLEEADGGSDILLVVPKATVLQNQLDESQQERNDLMQLKLQLEGQVTELRSRVQELERALATARQEHTELMEQYKGISRSHGEITEERDILSRQQGDHVARILELEDDIQTISEKVLTKEVELDRLRDTVKALTREQEKLLGQLKEVQADKEQSEAELQVAQQENHHLNLDLKEAKSWQEEQSAQAQRLKDKVAQMKDTLGQAQQRVAELEPLKEQLRGAQELAASSQQKATLLGEELASAAAARDRTIAELHRSRLEVAEVNGRLAELGLHLKEEKCQWSKERAGLLQSVEAEKDKILKLSAEILRLEKAVQEERTQNQVFKTELAREKDSSLVQLSESKRELTELRSALRVLQKEKEQLQEEKQELLEYMRKLEARLEKVADE | binds | – | – |
| Myc-CALCOCO1 (145–513), in vitro translated (domain or fragment, UniProt Q9P1Z2 145-513, 35S-methionine label) KATVLQNQLDESQQERNDLMQLKLQLEGQVTELRSRVQELERALATARQEHTELMEQYKGISRSHGEITEERDILSRQQGDHVARILELEDDIQTISEKVLTKEVELDRLRDTVKALTREQEKLLGQLKEVQADKEQSEAELQVAQQENHHLNLDLKEAKSWQEEQSAQAQRLKDKVAQMKDTLGQAQQRVAELEPLKEQLRGAQELAASSQQKATLLGEELASAAAARDRTIAELHRSRLEVAEVNGRLAELGLHLKEEKCQWSKERAGLLQSVEAEKDKILKLSAEILRLEKAVQEERTQNQVFKTELAREKDSSLVQLSESKRELTELRSALRVLQKEKEQLQEEKQELLEYMRKLEARLEKVADE | – | – | binding [4]: binds |
| Myc-CALCOCO1 ∆145–513, expressed in HEK293 cells (protein, UniProt Q9P1Z2) MEESPLSRAPSRGGVNFLNVARTYIPNTKVECHYTLPPGTMPSASDWIGIFKVEAACVRDYHTFVWSSVPESTTDGSPIHTSVQFQASYLPKPGAQLYQFRYVNRQGQVCGQSPPFQFREPRPMDELVTLEEADGGSDILLVVPKWNEDATTEDEEAAVGLSCPAALTDSEDESPEDMRLPPYGLCERGDPGSSPAGPREASPLVVISQPAPISPHLSGPAEDSSSDSEAEDEKSVLMAAVQSGGEEANLLLPELGSAFYDMASGFTVGTLSETSTGGPATPTWKECPICKERFPAESDKDALEDHMDGHFFFSTQDPFTFE | – | – | binding [1]: no binding |
| Myc-CALCOCO1 ∆LIR (Δ126–144) Δ641–691, in vitro translated (domain or fragment, UniProt Q9P1Z2, 35S-methionine label) MEESPLSRAPSRGGVNFLNVARTYIPNTKVECHYTLPPGTMPSASDWIGIFKVEAACVRDYHTFVWSSVPESTTDGSPIHTSVQFQASYLPKPGAQLYQFRYVNRQGQVCGQSPPFQFREPRPMDKATVLQNQLDESQQERNDLMQLKLQLEGQVTELRSRVQELERALATARQEHTELMEQYKGISRSHGEITEERDILSRQQGDHVARILELEDDIQTISEKVLTKEVELDRLRDTVKALTREQEKLLGQLKEVQADKEQSEAELQVAQQENHHLNLDLKEAKSWQEEQSAQAQRLKDKVAQMKDTLGQAQQRVAELEPLKEQLRGAQELAASSQQKATLLGEELASAAAARDRTIAELHRSRLEVAEVNGRLAELGLHLKEEKCQWSKERAGLLQSVEAEKDKILKLSAEILRLEKAVQEERTQNQVFKTELAREKDSSLVQLSESKRELTELRSALRVLQKEKEQLQEEKQELLEYMRKLEARLEKVADEKWNEDATTEDEEAAVGLSCPAALTDSEDESPEDMRLPPYGLCERGDPGSSPAGPREASPLVVISQPAPISPHLSGPAEDSSSDSEAEDEKSVLMAAVQSGGEEANLLLPELGSAFYDMASGFTVGTL | no binding | no binding | – |
| Myc-CALCOCO1 ∆145–513, in vitro translated (protein, UniProt Q9P1Z2, 35S-methionine label) MEESPLSRAPSRGGVNFLNVARTYIPNTKVECHYTLPPGTMPSASDWIGIFKVEAACVRDYHTFVWSSVPESTTDGSPIHTSVQFQASYLPKPGAQLYQFRYVNRQGQVCGQSPPFQFREPRPMDELVTLEEADGGSDILLVVPKWNEDATTEDEEAAVGLSCPAALTDSEDESPEDMRLPPYGLCERGDPGSSPAGPREASPLVVISQPAPISPHLSGPAEDSSSDSEAEDEKSVLMAAVQSGGEEANLLLPELGSAFYDMASGFTVGTLSETSTGGPATPTWKECPICKERFPAESDKDALEDHMDGHFFFSTQDPFTFE | – | – | binding [4]: no binding |
